Laboratory results published in a collection of fitness landscapes (doi:10.1126/science.1257360).
The other results are listed elsewhere or left out.

B1: PhoQ; a variant is named by its letters at X, in order, P23837 (parent)
chain: MKKLLRLFFPLSLRVRFLLATAAVVLVLSLAYGMVALIGYSVSFDKTTFRLLRGESNLFYTLAKWENNKLHVELPENIDKQSPTMTLIYDENGQLLWAQRDVPWLMKMIQPDWLKSNGFHEIEADVNDTSLLLSGDHSIQQQLQEVREDDDDAEMTHSVAVNVYPATSRMPKLTIVVVDTIPVELKSSYMVWSWFIYVLSANLLLVIPLLWVAAWWSLRPIEALAKEVRELEEHNRELLNPATTRELTSLVRNLNRLLKSERERYDKYRTTLTDLTHSLKTPLXXLQXXLRSLRSEKMSVSDAEPVMLEQISRISQQIGYYLHRASMRGGTLLSRELHPVAPLLDNLTSALNKVYQRKGVNISLDISPEISFVGEQNDFVEVMGNVLDNACKYCLEFVEISARQTDEHLYIVVEDDGPGIPLSKREVIFDRGQRVDTLRPGQGVGLAVAREITEQYEGKIVAGESMLGGARMEVIFGRQHSAPKDE

Variants of: B1
Test: enrichment ratio after two sorts for PhoP signalling (ratio (wild type AVST 3.29)); higher = more functional
Details: with PhoP (E. coli)

| Variant | enrichment ratio |
| --- | --- |
| AAFI | ≤ 0.25 |
| VIDD | ≤ 0.25 |
| VKGS | ≤ 0.25 |
| PCYH | ≤ 0.25 |
| WFFT | ≤ 0.25 |
| GFYI | ≤ 0.25 |
| SNIC | 4.56 |
| RFHN | ≤ 0.25 |
| IKWK | ≤ 0.25 |
| SGAV | 8.75 |
| SGME | 9.9 |
| PHDL | ≤ 0.25 |
| VTSV | ≤ 0.25 |
| IVGK | ≤ 0.25 |
| MRSK | ≤ 0.25 |
| NWFD | ≤ 0.25 |
| ACGV | ≤ 0.25 |
| TNKG | ≤ 0.25 |
| PPNF | ≤ 0.25 |
| YPDR | 7.08 |
| NEKR | ≤ 0.25 |
| GHIA | ≤ 0.25 |
| TAIN | 1.36 |
| SELN | 8.08 |
| SNMV | 18.5 |
| QNHM | ≤ 0.25 |

| Variant | enrichment ratio |
| --- | --- |
| TPET | ≤ 0.25 |
| HDHA | ≤ 0.25 |
| WNVY | ≤ 0.25 |
| QISS | 3.03 |
| FVGF | ≤ 0.25 |
| SHEA | ≤ 0.25 |
| TWGC | ≤ 0.25 |
| HMHR | ≤ 0.25 |
| AVFS | ≤ 0.25 |
| RLVR | ≤ 0.25 |
| PQMA | ≤ 0.25 |
| AWTG | ≤ 0.25 |
| GDSI | 5.59 |
| GWLL | ≤ 0.25 |
| EFGE | ≤ 0.25 |
| TKTV | 20 |
| HMPE | ≤ 0.25 |
| FDDN | ≤ 0.25 |
| VNPC | ≤ 0.25 |
| MQLT | ≤ 0.25 |
| DMHW | ≤ 0.25 |
| QSKV | ≤ 0.25 |
| YMTC | ≤ 0.25 |
| FQFG | ≤ 0.25 |
| LSCD | ≤ 0.25 |
| RKQH | ≤ 0.25 |

| Variant | enrichment ratio |
| --- | --- |
| NLDL | ≤ 0.25 |
| QHEP | ≤ 0.25 |
| FKWE | ≤ 0.25 |
| GHTS | ≤ 0.25 |
| LRDN | ≤ 0.25 |
| RAYL | ≤ 0.25 |
| IYLW | ≤ 0.25 |
| FMVL | ≤ 0.25 |
| PITS | ≤ 0.25 |
| ILFP | ≤ 0.25 |
| IGRD | ≤ 0.25 |
| INRE | ≤ 0.25 |
| WFCS | ≤ 0.25 |
| MDMM | ≤ 0.25 |
| KSAD | ≤ 0.25 |
| YVIH | ≤ 0.25 |
| FCFS | ≤ 0.25 |
| THQP | ≤ 0.25 |
| NECS | ≤ 0.25 |
| WGLR | ≤ 0.25 |
| YCPA | ≤ 0.25 |
| LHGM | ≤ 0.25 |
| ERCL | ≤ 0.25 |
| SPRY | ≤ 0.25 |
| PCKV | ≤ 0.25 |
| HRDW | ≤ 0.25 |

| Variant | enrichment ratio |
| --- | --- |
| PHME | ≤ 0.25 |
| RKVV | ≤ 0.25 |
| IDLG | ≤ 0.25 |
| LQLA | ≤ 0.25 |
| VEGK | ≤ 0.25 |
| YSGH | ≤ 0.25 |
| YMWW | ≤ 0.25 |
| ERWH | ≤ 0.25 |
| LFDT | ≤ 0.25 |
| TNSV | 19.4 |
| DSPY | ≤ 0.25 |
| QMKH | ≤ 0.25 |
| DPLY | ≤ 0.25 |
| VSQV | ≤ 0.25 |
| DWLC | ≤ 0.25 |
| TWHE | ≤ 0.25 |
| QMDS | ≤ 0.25 |
| MCNM | ≤ 0.25 |
| YKNY | ≤ 0.25 |
| DWCI | ≤ 0.25 |
| NRRN | ≤ 0.25 |
| PFRL | ≤ 0.25 |
| RQHH | ≤ 0.25 |
| KFMS | ≤ 0.25 |
| IMKQ | ≤ 0.25 |
| GMVK | ≤ 0.25 |

| Variant | enrichment ratio |
| --- | --- |
| WHFV | ≤ 0.25 |
| YAYP | ≤ 0.25 |
| RMLT | ≤ 0.25 |
| WVST | ≤ 0.25 |
| FPNP | ≤ 0.25 |
| YKLA | ≤ 0.25 |
| YSYT | ≤ 0.25 |
| QHFP | ≤ 0.25 |
| ATDI | ≤ 0.25 |
| LVYW | ≤ 0.25 |
| GFLS | ≤ 0.25 |
| TGQP | ≤ 0.25 |
| CAFH | 9.67 |
| NFRK | ≤ 0.25 |
| WKHK | ≤ 0.25 |
| RGNP | ≤ 0.25 |
| DMLR | ≤ 0.25 |
| GFTH | ≤ 0.25 |
| HTDN | ≤ 0.25 |
| GEWI | ≤ 0.25 |
| ICCW | ≤ 0.25 |
| MAHC | ≤ 0.25 |
| KEPI | ≤ 0.25 |
| WDYL | ≤ 0.25 |
| SFWE | ≤ 0.25 |
| HIYN | ≤ 0.25 |

| Variant | enrichment ratio |
| --- | --- |
| KIAK | ≤ 0.25 |
| PPFD | ≤ 0.25 |
| RHIY | ≤ 0.25 |
| DQFI | ≤ 0.25 |
| RCVG | ≤ 0.25 |
| YWKR | ≤ 0.25 |
| LYFQ | ≤ 0.25 |
| WHNI | ≤ 0.25 |
| HYLD | ≤ 0.25 |
| YGLT | 7.13 |
| TNIN | ≤ 0.25 |
| TIVN | ≤ 0.25 |
| SFYI | ≤ 0.25 |
| MVPT | ≤ 0.25 |
| IRRE | ≤ 0.25 |
| DDRS | ≤ 0.25 |
| MLGG | ≤ 0.25 |
| QDTI | ≤ 0.25 |
| KFRI | ≤ 0.25 |
| DCHS | ≤ 0.25 |
| GHGK | ≤ 0.25 |
| LLRV | ≤ 0.25 |
| VCSK | ≤ 0.25 |
